# Test results: PubChem BioAssay AID1508642 (National Center for Advancing Translational Sciences (NCATS), 2021)
# Among all 43,000 compounds or so, about 200 (0.47%) were called active. Roughly 12% stayed inconclusive and do not appear here. Calls follow the shape of the dose curve; as a rule, active = well fitted cell-killing curve with a large enough effect; inconclusive = small, poorly fitted or top-dose-only effect, or effect the other way; inactive = flat fitted curve, though single readings scatter. The list shows a part of the results.
# Assay: Cell viability qHTS assay in S16 Pmp22-F2sN cells; also: nearly all actives have a fitted effect of over 65% in size
# Details: S16 Pmp22-F2sN Schwann cells (luciferase reporters placed in the Pmp22 gene) viability, CellTiter-Glo, 24 h; series mostly up to 57.5 µM; activity change, negative = cytotoxicity: at the top concentration
# Source text: Assay Provider: Jim Inglese Ph.D. National Center for Advancing Translational Science, National Institutes of Health, Rockville, MD CMT is a heterogeneous group of neurological disorders that affect approximately 1 in 2,500 people. In particular, the most common form of CMT, CMT1A is genetically linked to the duplication of the PMP22 gene which leads to Schwann cell overexpression, thus manifesting itself as a typical case of dose-sensitive diseases. To identify small molecule compounds that can mediate the expression of PMP22 we developed a phenotypic assay screening strategy by utilizing genome editing techniques to construct Schwann cell lines containing novel reporter technology to monitor the transcriptional or translational regulation of PMP22. For high sensitivity we use a bioluminescent reporter system embedded in the 3' UTR of the PMP22 gene (S16(c9) Pmp22-F2sN) to identify compounds that inhibit gene expression. […] We can further discriminate the effect of all transcriptionally active molecules on PMP22 translation or stability with an assay that incorporates a short NLuc peptide (HiBiT) at the C-terminus of expressed PMP22 (S16(f8) PMP22-HiBiT) allowing alpha complementation and luminescence detection of membrane-associated PMP22 protein. These assays were screened against the NCATS Sytravon Library Collection. Miniaturization of these assays to 1536-well plate format for quantitative high throughput screening (qHTS) yielded rich data sets immediately from the qHTS assay (S16(c9) Pmp22-F2sN), when compared with data from a cell viability assay (Cell TiterGlo) to identify compounds that decreased the output signals through cellular toxicity to streamline the selection process of actives for subsequent characterization using the HiBiT assay (S16(f8) PMP22-HiBiT).
# Cell viability assay in S16 Pmp22-F2sN cells PROTOCOL TABLE (format as described by Inglese J, Shamu CE and Guy RK. 2007) SEQUENCE No. (e.g., 1, 2, 3, etc.); […] (e.g., Cells, Incubation, Reagent, etc.); VALUE and DESCRIPTION. 1. Cells. Add 500-1,000 cells in 4 uL in growth media (DMEM High Glucose, No Phenol Red media + 10% heat-inactivated FBS + 1% Pen/Strep supplemented media) per well into Greiner 1536-well white/solid bottom high base, TC-treated plates. 2. Compounds. Library compounds and controls added at 23nL per well, transferred by Pin Tool. 3. Incubation. Incubate plates at 37C, 5% CO2, 95% RH for 24 h. 4. Reagent. Add 3uL CellTiter-Glo per well of Greiner 1536-well plates. 5. Incubation. Incubate plates at room temperature for 15 min., protect from light. 6. Detector. FLuc luminescence measured using CCD-based camera (Viewlux). NOTES (numbers refer to Sequence numbers above; values are from representative experiments) 6. Luminescence Read: Clear filter; Exposure = 1 sec, Gain = High, Speed = Slow, Binning = 2X REFERENCES: 1. Inglese J, Shamu CE and Guy RK, Reporting data from high throughput screening of small molecule libraries, Nature Chemical Biology, 2007, 3(8): 438-441. doi.org/10.1038/nchembio0807-438 2. Yasgar A, Shinn P, Jadhav A, Auld DS, Michael S, Zheng W, Austin CP, Inglese J and Simeonov A, Compound Management for Quantitative High-Throughput Screening. J. Assoc. Lab. Auto., 2008, 13: 79-89. doi: 10.1016/j.jala.2007.12.004
# % is scaled to controls: 0 for no effect and ±100 for the full control effect; potency is read from the fitted curve at half-maximal effect.
SMILES,"activity change, negative = cytotoxicity",Potency
CCN(CC)CCCNC(=O)c1cn(C)c2ccc(S(=O)(=O)N3CCOCC3)cc2c1=O,inactive: 10.3%,–
CCOC(=O)c1cccc(NC(=O)c2cc(-c3ccc(Cl)s3)nc3ccccc23)c1,inactive: -24.8%,–
COc1ccccc1NC(=O)c1sc2nc(-c3cc4ccccc4oc3=O)[nH]c(=O)c2c1C,inactive: -13.5%,–
Cc1cc(C)cc(NC(=O)c2cccc(N3CCCS3(=O)=O)c2)c1,inactive: 0.392%,–
Cc1cccc(NC(=O)c2c(NC(=O)c3ccco3)sc3c2CCC(C(C)(C)C)C3)c1 (configuration not stated),inactive: -2.47%,–
CN(Cc1ccccc1)C(=O)C1CCN(Cc2cc3ccccc3n2Cc2ccccc2)CC1,inactive: -26.7%,–
Cc1cccc(C(=O)Nc2nnc(SCc3cc(=O)n4cccc(C)c4n3)s2)c1,inactive: 6.3%,–
COc1ccc(C(=O)N/C(=C\c2cn(S(=O)(=O)N(C)C)c3ccccc23)C(=O)NCCCn2ccnc2)cc1,inactive: -0.103%,–
O=C(CSc1nnc(-c2ccccc2F)o1)N1CCc2ccccc21,inactive: -0.544%,–
CCOc1ccccc1NC(=O)CCNS(=O)(=O)c1ccc2c(c1)CCN2C(=O)C1CC1,inactive: 0.406%,–
CCC(Sc1nnc(-c2ccc(OC)cc2)c(-c2ccc(OC)cc2)n1)C(=O)Nc1cccc(OC)c1 (configuration not stated),inactive: -0.0548%,–
Cc1ccc(OCCCC(=O)Nc2sc3c(c2C(N)=O)CCCC3)cc1,inactive: 17.5%,–
Cn1ncc2c(N3CCN(c4ccccc4Cl)CC3)ncnc21,inactive: -12.7%,–
CCCCN(C)C(=O)Cn1ncc2c([nH]c3ccc(C)cc32)c1=O,inactive: 6.74%,–
Cc1ccc(/C=C/c2onc(C)c2S(=O)(=O)N2CCC(C(=O)NCc3ccc(N(C)C)cc3)CC2)cc1,inactive: 7.95%,–
CCCCS(=O)CC(O)CSc1nc(-c2ccc(OC)cc2)cc(-c2ccccc2)c1C#N (configuration not stated),inactive: -19.4%,–
COc1ccc(NC(=O)CN(c2ccc(C)cc2)S(=O)(=O)c2cccs2)cc1OC,inactive: -2.59%,–
CCC1CN(C(=O)Nc2ccccc2C(F)(F)F)c2ccccc2S1 (configuration not stated),inactive: -2.55%,–
CCOC(=O)c1cccc(NC(=O)c2cnn(-c3ccccc3)c2-n2cccc2)c1,inactive: -17.7%,–
CC(=O)N1c2ccccc2C(=O)C1N1CCN(c2cc(Cl)ccc2C)CC1 (configuration not stated),inactive: -26.5%,–
O=C(CSCc1cc(=O)c2ccccc2[nH]1)Nc1cccc(C(F)(F)F)c1,inactive: 2.73%,–
CC(=O)c1ccc(N2CCN(S(=O)(=O)c3ccc4[nH]c5c(c4c3)CCCCC5)CC2)cc1,inactive: 2.56%,–
COc1ccc(NC(=O)CN2C(=O)CC(c3ccco3)Sc3ccccc32)cc1OC (configuration not stated),inactive: 0.102%,–

SMILES,"activity change, negative = cytotoxicity",Potency
COC(=O)c1scc(-c2ccc(C)cc2)c1S(=O)(=O)Nc1c(C)cc(C)cc1C,inactive: 8.91%,–
Cc1nc2c(-c3ccccc3)c(C)[nH]n2c(=O)c1Cc1ccc(C(C)C)cc1,–,active: 8.91 µM
CCS(=O)(=O)c1ncc(N(Cc2cccc(F)c2)Cc2ccco2)c(C(=O)Nc2ccccc2Cl)n1,inactive: 3.21%,–
CCC1CN(C(=O)N2CCC(C(=O)N(C)Cc3ccccc3)CC2)c2ccccc2O1 (configuration not stated),inactive: 1.09%,–
Cc1ccc(CNC(=O)c2cc(S(=O)(=O)N3CCCCC3)cn2C)cc1,inactive: 2.36%,–
COc1ccc2c(c1)c1c(c(=O)n(Cc3ccccc3)c(=O)n1Cc1ccc(C)cc1)n2C,inactive: 6.12%,–
CC(CNC(=O)CN1C(=O)COc2ccc(S(=O)(=O)N3CCCCC3)cc21)c1ccccc1 (configuration not stated),inactive: 4.69%,–
O=C(Nc1ccc(Cl)cc1)C1CCN(S(=O)(=O)c2ccc(Br)s2)CC1,inactive: -28.7%,–
Cc1ccccc1C(=O)Nc1ccc(C(=O)OCc2cc(=O)n3nc(C4CC4)sc3n2)cc1,inactive: -29%,–
COc1ccc(-c2cc(C(F)(F)F)n3nc(C(=O)Nc4sc5c(c4C#N)CCC(C)C5)cc3n2)cc1OC (configuration not stated),inactive: 2.6%,–
CCOC(=O)C1CCN(C(=O)c2cc3ccc4ccc(C)[nH]c4c3n2)CC1,inactive: 21.6%,–
CCC(C)NC(=O)c1[nH]c2cc(OC)ccc2c1Sc1ccc(C)cc1 (configuration not stated),inactive: 6.85%,–
COc1cccc(NC(=O)c2sc3nc(C)c(C(=O)Nc4ccc(C)cc4C)c(-c4ccccc4Cl)c3c2N)c1,inactive: 5.07%,–
Cc1ccc(CCNC(=O)c2ccc(NC(=O)N3CC(C)Sc4ccccc43)cc2)cc1 (configuration not stated),inactive: -2.81%,–
COC(=O)C1=C(c2ccccc2)c2ccccc2S(=O)(=O)N1CC(=O)Nc1cccc(C(C)=O)c1,inactive: -18.7%,–
Cc1ccc2nc(N(Cc3cccnc3)C(=O)Cc3ccccc3)sc2c1,inactive: 1.14%,–
COc1cccc(CN2CCc3nc(Nc4ccc5c(c4)OCCO5)ncc3C2)c1,inactive: 6.61%,–
CCc1ccc(-n2c(=O)c3c4c(sc3n(CC(=O)NCCCOC)c2=O)CCCC4)cc1,inactive: 15.1%,–
Fc1ccc(NCc2cccn2-c2nnc(N3CCOCC3)s2)cc1,inactive: 18.4%,–
CC1CCN(c2ncnc3c2cnn3-c2ccc(F)cc2)CC1,inactive: 3.19%,–
O=C(NCCc1cccs1)c1ccc(Cn2c(SCc3ccc(F)cc3)nc3cccnc32)cc1,inactive: 7.18%,–
COc1ccc(C(=O)CN2CCN(S(=O)(=O)c3ccc(C(C)C)cc3)CC2)cc1,inactive: -12.8%,–
COc1cccc(C2CC(=O)Nc3cc4c(cc32)OCCO4)c1OC (configuration not stated),inactive: -33.3%,–

SMILES,"activity change, negative = cytotoxicity",Potency
CCOC(=O)c1ccccc1NC(=O)Cn1ncc2c([nH]c3ccccc32)c1=O,inactive: -1.96%,–
CCc1ccccc1NC(=O)CCn1nc(C)c2c(C)n(-c3ccccc3)nc2c1=O,inactive: 1.92%,–
Cc1ccccc1Cn1c(SCc2ccc(C(=O)NC(C)c3ccccc3)cc2)nc2ccncc21 (configuration not stated),inactive: -3.25%,–
CCOC(=O)c1oc2ccc(S(=O)(=O)n3nc(-c4ccccc4OC)cc3N)cc2c1C,inactive: -14%,–
O=C(COC(=O)c1cc(-c2cccs2)nc2ccccc12)c1ccccc1,inactive: -1.41%,–
O=C(c1ccc2c(c1)N(Cc1ccccc1F)C(=O)c1ccccc1S2(=O)=O)N1CCOCC1,inactive: 8.02%,–
CCCN(CCC)CCCNC(=O)Cn1cnc2sc(C)c(S(=O)(=O)N3CCCCC3)c2c1=O,inactive: 0.556%,–
CCCN(Cc1cccs1)C(=O)Nc1cc(Cl)c(OC)cc1OC,inactive: 3.5%,–
COc1cccc(-n2c(SCC(=O)Nc3cc(C)ccc3C)nc3c(oc4ccccc43)c2=O)c1,inactive: -4.84%,–
COc1ccc(-c2cc(C(=O)Oc3ccccc3)c3cc(C)ccc3n2)cc1,inactive: -18.5%,–
CCn1c(=O)n(-c2ccc(C)c(F)c2)c(=O)c2sc3ccccc3c21,inactive: -5.41%,–
COc1ccc(C2=NC3(CCCCC3)N(CC(=O)Nc3ccc(C(C)C)cc3)C2=O)cc1,inactive: -16%,–
CCOCCCNC(=O)c1ccc2nc(CCc3ccccc3)oc2c1,inactive: -0.604%,–
Cc1ccc(-c2nc3nc(C)cc(N4CCN(c5cc(Cl)ccc5C)CC4)n3n2)cc1,inactive: -2.91%,–
CCc1ccc(NC(=O)C(NS(=O)(=O)c2cccs2)C(C)C)cc1 (configuration not stated),inactive: -3.37%,–
O=C(Nc1ccc2oc(-c3cccc4c(Br)cccc34)nc2c1)c1ccc(F)cc1,inactive: 12.1%,–
Cn1c(=O)c2c(c3ccccc31)OC(=O)CC2c1ccc(C(F)(F)F)cc1 (configuration not stated),inactive: 0.14%,–
Cc1ccc(NC(=O)c2nn(C)c3c2CS(=O)(=O)c2ccccc2-3)c(Cl)c1,inactive: -2.04%,–
COc1ccc(NC(=O)c2cn(CC(C)C)c(=O)c3cc(OC)c(OC)cc23)cc1Cl,inactive: -12.4%,–
NS(=O)(=O)c1ccc(CCNC(=O)CCCCCn2c(=O)[nH]c3ccccc3c2=O)cc1,inactive: 0.343%,–
CCc1cccc(NC(=O)CSc2ncc3c(n2)-c2ccc(Cl)cc2N(Cc2ccccc2)S3(=O)=O)c1,inactive: -1.28%,–
CCc1c(C)sc2c1CCN(C(=O)Nc1cc(OC)c(OC)c(OC)c1)C2c1ccccc1 (configuration not stated),inactive: -19%,–
COc1cccc(C(=O)NC2(C(F)(F)F)C(=O)Nc3c2c(=O)[nH]c(=O)n3-c2ccc(C)cc2)c1 (configuration not stated),inactive: 4.45%,–

SMILES,"activity change, negative = cytotoxicity",Potency
Cc1nc(N2CCOCC2)c2c(C(=O)NCc3cccc(Cl)c3)c(C)oc2n1,inactive: 10.9%,–
Oc1c(C(c2ccccc2)N2CCC3(CC2)OCCO3)sc2nc(-c3ccco3)nn12 (configuration not stated),inactive: -0.0139%,–
COc1ccc(-c2nc3c(c(SCC(=O)Nc4ccc(C(=O)O)cc4)n2)Cc2ccccc2O3)cc1,inactive: 2.09%,–
CCOC(=O)Cc1ccc(NC(=O)Nc2cccc(OCc3cc(=O)n4cc(C)ccc4n3)c2)cc1,inactive: 9.52%,–
O=C(c1noc2c1CCCCC2)N1CCN(c2ccc(Cl)cc2)CC1,inactive: -0.439%,–
CCc1ccc(-c2cn3c(n2)sc2cc(C(=O)NCCc4ccc(OC)cc4OC)ccc23)cc1,inactive: 18.3%,–
COc1ccccc1NC(=O)Cn1c(=O)n(Cc2ccc3c(c2)OCO3)c(=O)c2oc3ccccc3c21,inactive: 1.69%,–
CN(Cc1ccccc1)C(=O)CN1C(=O)CSc2ccc(S(=O)(=O)N3CCOCC3)cc21,inactive: 12.8%,–
COc1ccc(OC)c(S(=O)(=O)Nc2cc3c(cc2C)n(C)c(=O)c(=O)n3C)c1,inactive: -19.7%,–
Cc1ccc(NC(=O)CN(c2ccccc2)S(=O)(=O)N(C)C)cc1Cl,inactive: 2.26%,–
CCCCN(CCCC)CCNC(=O)c1cn(C)c2ccc(S(=O)(=O)N3CCOCC3)cc2c1=O,inactive: 7.9%,–
Cc1c(Cl)cccc1NS(=O)(=O)c1ccc2[nH]cc(C(=O)NC3CCCC3)c(=O)c2c1,inactive: -8.36%,–
COc1cccc(N2CC(NC(=O)Cc3cccs3)CC2=O)c1 (configuration not stated),inactive: 3.54%,–
CCOc1ccc(OCC)c(Nc2nc3ccccc3c3nnc(C)n23)c1,inactive: 4.1%,–
Cc1ccc2c(c1)c1c(c(=O)n(-c3ccccc3)c(=O)n1CC(=O)N1CCCC1)n2C,inactive: 12.9%,–
CCn1cc(C(=O)NCCc2ccc(C)cc2)c(=O)c2cc(S(=O)(=O)N(C)C)ccc21,inactive: -3.39%,–
Cc1cc(C)c(Cn2c3ccccc3c3cnn(CC(=O)N4CCCCC4)c(=O)c32)c(C)c1,inactive: 6.46%,–
CN1C(=O)CC(=O)N(C)c2cc(S(=O)(=O)N(C)Cc3ccccc3)ccc21,inactive: -13.5%,–
Cc1ccccc1C(=O)Nc1ccccc1C(=O)OCc1cc(=O)n2ccsc2n1,inactive: 1.88%,–
COc1ccc2c(c1)c1c(c(=O)n(-c3ccc(OC)c(OC)c3)c(=O)n1Cc1ccccc1C)n2C,inactive: 0.625%,–
CC(=O)c1cccc(NS(=O)(=O)c2ccc3[nH]c4c(c3c2)CCCCCC4)c1,inactive: -25.6%,–
Cc1ccc(-n2ncc(C(=O)NCCN3CCN(C)CC3)c2C2CCN(C(=O)OC(C)(C)C)CC2)c(C)c1,inactive: -0.624%,–
COc1cccc(CNC(=O)CCn2c(=O)c3cccn3c3ccc(F)cc32)c1OC,inactive: -17%,–
